Data on 43 molecules can be found in paper PMC4336329 (PLoS ONE, 2015).

The campaign covered roughly 310,000 compounds. About 2,200 (0.71%) showed an effect of 50% or more. Effects have a minus sign here. This is one part of the list.

The assay deals with human ether-à-go-go-related gene (hERG) potassium channel (human, UniProt Q12809). The assay can be described thus: primary screen, population patch clamp on CHO cells stably expressing hERG.
Chain of human ether-à-go-go-related gene (hERG) potassium channel (Q12809 whole entry, looked up): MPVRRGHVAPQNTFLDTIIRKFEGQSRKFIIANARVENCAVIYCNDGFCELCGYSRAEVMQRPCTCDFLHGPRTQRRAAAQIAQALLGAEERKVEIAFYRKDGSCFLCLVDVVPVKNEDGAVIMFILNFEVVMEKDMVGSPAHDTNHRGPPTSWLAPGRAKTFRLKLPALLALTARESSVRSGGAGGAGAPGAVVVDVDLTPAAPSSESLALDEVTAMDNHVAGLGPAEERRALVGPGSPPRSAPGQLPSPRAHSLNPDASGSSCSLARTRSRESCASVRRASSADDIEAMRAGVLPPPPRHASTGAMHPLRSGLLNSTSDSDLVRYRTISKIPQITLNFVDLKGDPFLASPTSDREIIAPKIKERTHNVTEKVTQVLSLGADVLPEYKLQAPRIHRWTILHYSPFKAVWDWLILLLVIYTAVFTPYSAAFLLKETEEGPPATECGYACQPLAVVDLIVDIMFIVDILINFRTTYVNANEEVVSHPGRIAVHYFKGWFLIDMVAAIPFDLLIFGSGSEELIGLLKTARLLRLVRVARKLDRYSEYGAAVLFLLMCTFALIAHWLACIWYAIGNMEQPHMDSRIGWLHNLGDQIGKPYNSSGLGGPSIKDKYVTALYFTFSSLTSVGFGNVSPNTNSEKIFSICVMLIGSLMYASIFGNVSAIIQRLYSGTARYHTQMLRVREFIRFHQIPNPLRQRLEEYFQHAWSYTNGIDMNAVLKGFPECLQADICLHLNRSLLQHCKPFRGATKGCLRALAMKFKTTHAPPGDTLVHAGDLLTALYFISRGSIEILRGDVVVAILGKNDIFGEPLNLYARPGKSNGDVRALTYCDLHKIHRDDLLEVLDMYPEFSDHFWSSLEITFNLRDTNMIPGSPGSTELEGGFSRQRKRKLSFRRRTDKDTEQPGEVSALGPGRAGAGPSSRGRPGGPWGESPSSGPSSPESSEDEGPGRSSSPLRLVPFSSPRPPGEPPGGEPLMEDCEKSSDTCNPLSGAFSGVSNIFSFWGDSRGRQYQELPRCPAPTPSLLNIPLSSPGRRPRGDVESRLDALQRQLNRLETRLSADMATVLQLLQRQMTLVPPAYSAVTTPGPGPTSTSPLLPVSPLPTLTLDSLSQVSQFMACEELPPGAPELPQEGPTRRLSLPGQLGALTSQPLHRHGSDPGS
`O=C(NCc1ccco1)C(c1ccccc1)N(Cc1ccccc1)C(=O)Cn1nnc2ccccc21` (stereo not shown): the “hERG current change (%, negative = inhibition) at 1uM” value turned out to be 10.1%.
The value for `Cc1cc2ccccc2n1CCNC(=O)c1cccs1` was 11.5%; that for `CS(=O)(=O)N(CC(=O)NCc1ccco1)c1cc(C(F)(F)F)ccc1Cl` was 5.01%; that for `COc1ccc(Cl)cc1S(=O)(=O)N1CCCc2ccccc21` was 4.35%.
With `CCOC(=O)CCCCC(=O)c1[nH]c(=O)[nH]c1Cn1ccnc1`, the “hERG current change (%, negative = inhibition) at 1uM” value is 12.6%.
The value for `COc1ccc(C(=O)NNC(=O)C(=O)Nc2cccc3ccccc23)cc1` was 14.5%; that for `CN1CCN(C(CNS(=O)(=O)c2ccc([N+](=O)[O-])cc2)c2ccc(F)cc2)CC1` (stereo not shown) was -40.1%.
The result for `CCCCCn1c(SCCN2CCOCC2)nc2c1c(=O)[nH]c(=O)n2C` reads -40.7%.
The result for `O=C(COC(=O)c1nc(Cl)c(Cl)c(Cl)c1Cl)NCc1ccccc1` reads 3.59%; that for `O=C(O)c1[nH]c2ccccc2c1C(c1c(F)cccc1Cl)c1c(C(=O)O)[nH]c2ccccc12`, 11.6%.
Consider `O=C(NCCC1CCCCN1S(=O)(=O)c1ccccc1)C(=O)NCc1ccncc1` (stereo not shown), for which the “hERG current change (%, negative = inhibition) at 1uM” value worked out at 11.9%.
The result for `Cc1ccc(C(=O)/C=C/c2ccccc2)o1` reads 6.95%.
As to `CCOC(=O)c1cccc(C2=CC(=O)C[C@H](c3ccc(OC)cc3)C2)c1`, the “hERG current change (%, negative = inhibition) at 1uM” value is 12.4%.
The result for `COc1ccc2[nH]c(C)c(CCNC(=S)Nc3ccc(F)cc3)c2c1` reads 3.08%.
The value for `COc1ccc(C)cc1S(=O)(=O)N(CC(=O)O)c1ccc(C)cc1` was 19.4%; that for `CCOCC(=O)Nc1ccc(OCc2ccccc2)cc1` was 8.81%.
The result for `Cc1ccc(C(=O)Nc2cccc(NC(=O)c3cccs3)c2)c(C)c1` reads 8.47%.
With `O=C(CNCC1CCCO1)N1CCN(S(=O)(=O)c2ccc3ccccc3c2)CC1.O=C(O)C(=O)O` (stereo not shown), the “hERG current change (%, negative = inhibition) at 1uM” value worked out at 2.41%.
Regarding `Cc1cccc(C)c1NC(=O)c1c(-c2ccccc2)noc1C`, the “hERG current change (%, negative = inhibition) at 1uM” value is recorded as 0.262%.
For the molecule `CC1C2Cn3c(nc4ccccc43)C1N(C(C)C)O2` (stereo not shown), the “hERG current change (%, negative = inhibition) at 1uM” value worked out at 9.32%.
The result for `O=C(O)CCCC(=O)N1CCN(C(c2ccccc2)c2ccccc2)CC1` reads 5.16%.
`COC(=O)c1cc(NC(=O)CC2NC3CCCCC3NC2=O)cc(C(=O)OC)c1` (stereo not shown): the “hERG current change (%, negative = inhibition) at 1uM” value is on record as -4.52%.
With `O=c1c2ccccc2nnn1CSc1nnc(-c2ccc3c(c2)OCO3)o1`, the “hERG current change (%, negative = inhibition) at 1uM” value was found to be 9.38%.
Take `O=C(COc1ccccc1)NC(=S)Nc1cccc2cc(O)ccc12`: the “hERG current change (%, negative = inhibition) at 1uM” value is 6.78%.
The result for `O=C(O)c1ccccc1.OC(CNCC1CCCO1)Cn1c2ccc(Cl)cc2c2cc(Cl)ccc21` (stereo not shown) reads 7%.
The value for `CC1=C(C(N)=O)C(c2cccs2)n2nc(-c3cccc(Cl)c3)nc2N1` (stereo not shown) was 6.41%; that for `CCN(CC)S(=O)(=O)c1cccc(-c2n[nH]c(=S)n2/N=C/c2ccc(Br)cc2)c1` was 11%; that for `CC(/C=C1\SC(=S)N(CCCC(=O)Nc2ccc(C(=O)O)c(O)c2)C1=O)=C\c1ccccc1` was 13.3%.
The result for `CC(C)(C)OC(=O)NCCc1nnc(SCC(N)=O)o1` reads 7.47%; that for `CCCCNC(=O)Nc1cnn(CC)c1C(N)=O`, 11.3%.
In the case of `COc1ccccc1CNC(=O)c1ccc2nc(N3CCOCC3)sc2c1`, the “hERG current change (%, negative = inhibition) at 1uM” value is on record as -3.47%.
The result for `CC1CCN(c2ccc(C=O)o2)CC1` reads 9.04%; that for `COc1ccc(N(C(=O)Cn2nnc3ccccc32)C(C(=O)NCc2ccco2)c2ccc(C)o2)cc1` (stereo not shown), 4.86%.
The result for `CN(C)C(=O)CSc1nc2ccc(C(=O)c3ccccc3)cc2[nH]1` reads 12.3%; that for `CCCc1nn(C)c(C(=O)Nc2ccc(CC)cc2)c1Cl`, 10.7%.
For the molecule `O=C(CCCCCn1c(=S)[nH]c2cc3c(cc2c1=O)OCO3)N1CCN(c2ccccc2)CC1`, the “hERG current change (%, negative = inhibition) at 1uM” value is 18.1%.
Regarding `COc1ccc(C(=O)NCc2nnc(SCC(=O)Nc3cc(Cl)ccc3OC)o2)cc1`, the “hERG current change (%, negative = inhibition) at 1uM” value is on record as -1.85%.
The result for `Cc1c(Cc2ccccc2)c(=O)oc2cc(OC(=O)c3ccccc3)ccc12` reads 17.4%; that for `CC(NC(=O)Cn1c(NCCO)nc2ccccc21)C1CC2CCC1C2` (stereo not shown), 10.5%.
Take `Cc1c(C(=O)N2CCN(c3ccccc3)CC2)oc2c(Cl)cccc12`: the “hERG current change (%, negative = inhibition) at 1uM” value worked out at 9.8%.
The result for `COc1cccc(S(=O)(=O)N2CCN(Cc3ccc4c(c3)OCO4)CC2)c1` reads 13.7%.
Turning to `COc1ccc2c(c1)C1=NN(/C(C)=C/C(C)=O)C(c3cccc(F)c3)C1CC2` (stereo not shown), the “hERG current change (%, negative = inhibition) at 1uM” value is 8.01%.
`COc1cc(C(=O)Nc2ccc(NC(=O)C3CC3)nc2)cc(OC)c1OC`: the “hERG current change (%, negative = inhibition) at 1uM” value is 8.4%.
